# The list shows a part of the results.
# B1: Q9UKT9 (peptide)
# chain: LWCPICGFNCTQKGNLLRHIKL
# B2: Q9UKT9 (peptide)
# chain: FDCNQCGHYFTQKGNLLRHIKL
# B3: Q9UKT9 (peptide)
# chain: FSCNQCGRQFTQKGNLLRHIKL
# B4: Q9UKT9 (peptide)
# chain: LTCPICGFVCTQKGNLLRHIKL
# B5: Q9UKT9 (peptide)
# chain: FFCNQCGRDFTQKGNLLRHIKL
# B6: Q9UKT9 (peptide)
# chain: FECDVCGAAFTQKGNLLRHIKL
# B7: Q9UKT9 (peptide)
# chain: FDCSVCGHAFTQKGNLLRHIKL
# B8: Q9UKT9 (peptide)
# chain: FLCDICGADFTQKGNLLRHIKL
# B9: Q9UKT9 (peptide)
# chain: FDCPVCGASFTQKGNLLRHIKL
# B10: Q9UKT9 (peptide)
# chain: FMCDICGAWFTQKGNLLRHIKL
# B11: Q9UKT9 (peptide)
# chain: LICEICGFRCTQKGNLLRHIKL
# B12: Q9UKT9 (peptide)
# chain: FHCEICGRNFTQKGNLLRHIKL
# B13: Q9UKT9 (peptide)
# chain: FVCNQCGHQFTQKGNLLRHIKL
# B14: Q9UKT9 (peptide)
# chain: FMCNQCGRVFTQKGNLLRHIKL
# B15: Q9UKT9 (peptide)
# chain: FLCDVCGAMFTQKGNLLRHIKL
# B16: Q9UKT9 (peptide)
# chain: FGCEVCGAYFTQKGNLLRHIKL
# B17: Q9UKT9 (peptide)
# chain: LCCNQCGFACTQKGNLLRHIKL
# B18: Q9UKT9 (peptide)
# chain: FMCEQCGAFFTQKGNLLRHIKL
# B19: Q9UKT9 (peptide)
# chain: FTCEVCGAMFTQKGNLLRHIKL
# B20: Q9UKT9 (peptide)
# chain: FHCEQCGARFTQKGNLLRHIKL
# B21: Q9UKT9 (peptide)
# chain: FMCDQCGATFTQKGNLLRHIKL
# B22: Q9UKT9 (peptide)
# chain: FFCEICGRKFTQKGNLLRHIKL
# B23: Q9UKT9 (peptide)
# chain: FVCEVCGAKFTQKGNLLRHIKL
# B24: Q9UKT9 (peptide)
# chain: FRCNQCGRRFTQKGNLLRHIKL
# B25: Q9UKT9 (peptide)
# chain: FACEQCGAAFTQKGNLLRHIKL
# B26: Q9UKT9 (peptide)
# chain: FCCEICGRYFTQKGNLLRHIKL
# B27: Q9UKT9 (peptide)
# chain: FICPICGREFTQKGNLLRHIKL
# B28: Q9UKT9 (peptide)
# chain: FVCEICGHYFTQKGNLLRHIKL
# B29: Q9UKT9 (peptide)
# chain: FTCPICGAHFTQKGNLLRHIKL
# B30: Q9UKT9 (peptide)
# chain: FQCNQCGREFTQKGNLLRHIKL
# B31: Q9UKT9 (peptide)
# chain: FGCNQCGRFFTQKGNLLRHIKL
# B32: Q9UKT9 (peptide)
# chain: FWCNVCGAEFTQKGNLLRHIKL
# B33: Q9UKT9 (peptide)
# chain: FSCNQCGHQFTQKGNLLRHIKL
# B34: Q9UKT9 (peptide)
# chain: FCCNVCGADFTQKGNLLRHIKL
# B35: Q9UKT9 (peptide)
# chain: FLCEICGHQFTQKGNLLRHIKL
# B36: Q9UKT9 (peptide)
# chain: FDCDQCGAFFTQKGNLLRHIKL
# B37: Q9UKT9 (peptide)
# chain: FHCEICGRYFTQKGNLLRHIKL
# B38: Q9UKT9 (peptide)
# chain: FMCEICGAWFTQKGNLLRHIKL
# B39: Q9UKT9 (peptide)
# chain: FMCNVCGANFTQKGNLLRHIKL
# B40: Q9UKT9 (peptide)
# chain: LDCNQCGFHCTQKGNLLRHIKL
# B41: Q9UKT9 (peptide)
# chain: FNCPICGRWFTQKGNLLRHIKL
# B42: Q9UKT9 (peptide)
# chain: FICDVCGADFTQKGNLLRHIKL
# B43: Q9UKT9 (peptide)
# chain: FICDICGAWFTQKGNLLRHIKL
# B44: Q9UKT9 (peptide)
# chain: FGCNICGAIFTQKGNLLRHIKL
# B45: Q9UKT9 (peptide)
# chain: FSCDICGAHFTQKGNLLRHIKL
# B46: Q9UKT9 (peptide)
# chain: FVCPQCGALFTQKGNLLRHIKL
# B47: Q9UKT9 (peptide)
# chain: FMCPICGRNFTQKGNLLRHIKL
# B48: Q9UKT9 (peptide)
# chain: LVCPICGFDCTQKGNLLRHIKL
# B49: Q9UKT9 (peptide)
# chain: FSCEICGHGFTQKGNLLRHIKL
# B50: Q9UKT9 (peptide)
# chain: FGCSVCGHKFTQKGNLLRHIKL
# Biological target: no compound (DMSO)
# Assay: log2 fold change of degron read counts, EGFP-low vs EGFP+ sorted cells; higher = lower degron-EGFP level without compound (poor expression or instability)
# Conditions: compound: DMSO control; 18 h
# 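Also: jurkat cells carrying a lentiviral library of mutant zinc finger degrons fused to EGFP plus mCherry, mCherry+ cells FACS sorted, degron abundance counted by next-generation sequencing.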
row,Sequence,log2 fold change of degron read counts
1,B1,2.46
2,B2,1.22
3,B3,-0.788
4,B4,0.69
5,B5,-0.367
6,B6,-2.17
7,B7,-0.22
8,B8,-2.62
9,B9,-0.683
10,B10,-0.378
11,B11,0.29
12,B12,-1.06
13,B13,-0.375
14,B14,-0.176
15,B15,-0.656
16,B16,-0.441
17,B17,0.752
18,B18,-1.16
19,B19,-1.36
20,B20,-0.881
21,B21,-1.47
22,B22,-0.712
23,B23,-2.84
24,B24,-0.434
25,B25,-1.7

row,Sequence,log2 fold change of degron read counts
1,B26,-0.334
2,B27,-0.548
3,B28,-1.22
4,B29,-0.356
5,B30,-1.65
6,B31,1.02
7,B32,-0.829
8,B33,-0.157
9,B34,-1.03
10,B35,-2.36
11,B36,0.156
12,B37,-0.769
13,B38,-0.612
14,B39,-1.49
15,B40,0.158
16,B41,0.756
17,B42,-2.89
18,B43,-0.549
19,B44,0.509
20,B45,-1.26
21,B46,-0.248
22,B47,-0.324
23,B48,0.764
24,B49,-0.794
25,B50,0.197
